# “And” between values parts separate entries of the source, which are not always exact repeats. Equal values may be shown once. Among all 420,000 compounds or so, about 50,000 (12%) were called active. The inconclusive results got no clear call from the source; some entries with a clear call stand among them for comparison. Calls come from the whole dose curve; as a rule, active = well fitted inhibition curve with a large enough effect; inconclusive = small, poorly fitted or top-dose-only effect; inactive = flat fitted curve, though single readings scatter. Where the call is inconclusive, the potency comes from a doubtful curve fit.
# Assay: qHTS for Inhibitors of human tyrosyl-DNA phosphodiesterase 1 (TDP1): qHTS in cells in presence of CPT; note: nearly all actives have a fitted effect of over 55% in size
# Conditions: chicken DT40 Tdp1-/-;hTDP1 cells + 20 nM CPT, ATP luminescence, 48 h; activity change, negative = growth inhibition: at 46.2 µM (top of the series)
# How it was run: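 Chicken DT40 Tdp1-/- cells complemented with human TDP1, 400 cells/well, exposed to compounds plus 20 nM camptothecin for at least 48 h at 37 C; viability read as ATP content by CellTiter-Glo luminescence.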
# % is set by controls: 0 for no effect and ±100 for the full control effect; potency is the fitted concentration of half-maximal effect; tags give direction and shape of the fitted curve.
Compound,"activity change, negative = growth inhibition",Potency
Cc1nc(SCc2cccc(F)c2)c2oc3ccccc3c2n1,inactive: -9.29%,
CCOC(=O)c1cc(-c2ccccc2)n(CC2CC(c3ccc(OC)cc3)=NO2)n1 (stereo not given),,active: 23.1 µM
O=S(=O)(c1ccccc1)c1nc(-c2cccc(Cl)c2)oc1N1CCOCC1,,"inconclusive: 16.4 µM [inhibitor, single point] and inconclusive: 25.9 µM [inhibitor, single point]"
Cc1cc(=O)n2[nH]c(-c3ccccc3)cc2n1,inactive: -24.9%,
O=[N+]([O-])c1ccc(O)c(C=Nc2cccc3ncccc23)c1,,"inconclusive: 29.1 µM [inhibitor, single point]"
CCOC(=O)N1CCN(C(=O)C[C@@H]2C[C@@]3(C(=O)OCC)CCCC=C3N(CCC3=CCCCC3)C2=O)CC1,,"inconclusive: 0.0184 µM [inhibitor, full curve, poor fit]"
O=C(CNC(=O)c1cccc(F)c1)N/N=C/c1cc(Br)ccc1OCc1ccccc1,,"inconclusive: 20.6 µM [inhibitor, partial curve, poor fit]"
CCc1ccccc1NC(=S)NCCSc1ccc(Cl)cc1,,"inconclusive: 20.6 µM [inhibitor, single point]"
Clc1ccc(/C=N/c2c(-c3ccco3)nc3ccccn23)cc1,,"inconclusive: 29.1 µM [inhibitor, single point]"
CCOc1ccc(-c2cc3nc(C4CCN(C(=O)OC(C)(C)C)CC4)c(C(=O)Nc4c(C)cccc4C)cn3n2)cc1,,active: 14.6 µM
Cc1ccc(CCNC(=O)CN(C)S(=O)(=O)c2ccc3c(c2)c(=O)n(C)c(=O)n3C)cc1,,"inconclusive: 9.2 µM [inhibitor, partial curve]"
C(=N\N=C\c1ccncc1)/c1ccncc1,inactive: -20.5%,
O=C(c1ccc(S(=O)(=O)c2cccc(Cl)c2)c([N+](=O)[O-])c1)N1CCN(c2ccccn2)CC1,,active: 2.59 µM
CC(=O)c1cc2cccc(OC3(C)CCN(Cc4ccc5ccccc5c4)C3)c2o1 (stereo not given),,active: 18.4 µM
Cc1ccc(OCc2n[nH]c(=S)n2N)cc1C,inactive: 6.21%,
N#CC1=C(N)Oc2cc3ccccc3cc2C1c1cccnc1 (stereo not given),,active: 8.2 µM
O=C(COC(=O)Cc1ccc(F)cc1)Nc1ccc2[nH]c(=O)[nH]c2c1,inactive: -0.465%,
C/C(=N/NC(=O)CN1CCN(Cc2ccccc2Cl)CC1)c1ccncc1,,"inconclusive: 3.66 µM [inhibitor, full curve]"
COc1ccc(C(=O)/C=C/C(=O)N(Cc2ccccc2OC)C(C(=O)NC2CCCCC2)c2ccncc2)c(O)c1 (stereo not given),,"inconclusive: 29.1 µM [inhibitor, single point]"
C#CC(c1ccccc1)(c1ccccc1)n1ccnc1,,"inconclusive: 23.1 µM [inhibitor, single point]"
Cc1nnc(NC(=O)CCSCCC(=O)Nc2nnc(C)s2)s1,inactive: -10.5%,
CC1(C(=O)NS(=O)(=O)c2ccc(C#N)cc2)CCN1C(=O)Cc1ccsc1 (stereo not given),inactive: -14.5%,
CCNc1ncc2nc(CCc3ccccc3)c(=O)n(C[C@H]3CCCO3)c2n1,inactive: -24.7%,
CCOC(=O)c1c(C)sc(-c2c(-c3cccc(Cl)c3)[nH]c3c2c(=O)n(C)c(=O)n3C)c1O,,"inconclusive: 18.4 µM [inhibitor, single point]"

Compound,"activity change, negative = growth inhibition",Potency
CC(C)CC(C(=O)OCC(=O)c1c(N)n(C)c(=O)n(C)c1=O)N1C(=O)c2ccccc2C1=O (stereo not given),,"inconclusive: 9.2 µM [inhibitor, partial curve]"
CC1(C(=O)NCc2ccccc2)CSCC(=O)N1Cc1cccc(C(F)(F)F)c1 (stereo not given),,active: 18.4 µM
Cc1cccc(-n2c(=O)cc(N3CCN(c4ccc(F)cc4)CC3)[nH]c2=O)c1,,"inconclusive: 23.1 µM [inhibitor, single point]"
Oc1ccc(C[C@@H](CN2CCCC2CN2C(=S)NC[C@@H]2Cc2ccccc2)N2C[C@H](Cc3ccccc3)N(CC3CCCCCC3)C2=S)cc1 (stereo not given in full),,"inconclusive: 23.1 µM [inhibitor, single point]"
Cn1c(NCc2ccco2)nc2c1c(=O)n(Cc1ccc(Cl)cc1Cl)c(=O)n2C,,"inconclusive: 1.03 µM [inhibitor, full curve, poor fit]"
Cc1ccnc(NS(=O)(=O)c2ccc(-n3cccn3)cc2)c1,inactive: -14.2%,
Cc1ccc(C(=O)NCCc2c[nH]c3ccccc23)s1,,"inconclusive: 18.4 µM [inhibitor, single point]"
O=C(CCCC(=O)N1CCN(c2ccccc2F)CC1)N1CCN(c2ccccc2F)CC1,,"inconclusive: 29.1 µM [inhibitor, single point]"
COc1cc(C)ccc1OCCOCCOc1ccc(C)cc1[N+](=O)[O-],,"inconclusive: 18.4 µM [inhibitor, single point]"
COc1cccc(NC(=O)c2csnn2)c1,inactive: 2.54%,
CC1(Cc2ccc(Cl)s2)C(=O)Nc2c(Cl)ccc(Cl)c21 (stereo not given),,"inconclusive: 29.1 µM [inhibitor, single point]"
CCC(=O)c1ccc(OCC(=O)N2CCN(c3ncccn3)CC2)cc1,inactive: -2.67%,
CC(=O)N1CCc2cc(CNC(=O)Nc3ccc(Br)c(C)c3)ccc21,,"inconclusive: 32.6 µM [inhibitor, single point]"
Cc1c(C(=O)NCc2ccccc2CN2CCCC2)oc2c(F)cccc12,,"inconclusive: 29.1 µM [inhibitor, single point]"
Cc1ccc(Cn2c(C(CO)Nc3nc(-c4ccc(F)cc4)cs3)nc3ccccc32)cc1 (stereo not given),,"inconclusive: 23.1 µM [inhibitor, single point]"
O=S(=O)(Nc1ccc(N2CCCCC2)cc1)c1ccccc1F,,"inconclusive: 29.1 µM [inhibitor, single point]"
CC1CC(C)CN(S(=O)(=O)c2ccc3c(c2)CC(C)N3C(=O)C2CC2)C1 (stereo not given),,active: 18.4 µM
Cn1c(CNC(=O)CNC(=O)c2ccc(C(C)(C)C)cc2)cc(=O)n(C)c1=O,inactive: -1.72%,
CCc1ccccc1N(C)S(=O)(=O)c1ccc2c(c1)C(C)(C)C(=O)N2C,,"inconclusive: 18.4 µM [inhibitor, single point]"
CN(CC(=O)Nc1cc(S(=O)(=O)N2CCCCCC2)ccc1Cl)Cc1ccc2c(c1)OCO2,,active: 16.4 µM
COC(=O)c1cccc(NC(=O)CSc2nnc(C)n2C)c1,inactive: 4.93%,
COc1ccc(CCN2C(=O)c3[nH]nc(-c4ccccc4O)c3C2c2ccccc2)cc1 (stereo not given),,active: 5.17 µM
CC(C)CN(C(=O)c1cccc(S(=O)(=O)N2CCN(c3ccc(F)cc3)CC2)c1)C1CCS(=O)(=O)C1 (stereo not given),,"inconclusive: 25.9 µM [inhibitor, partial curve]"
C=Cc1ccc(Cn2ccn(-c3ccc(F)c(F)c3)c(=O)c2=O)cc1,inactive: 0.681%,

Compound,"activity change, negative = growth inhibition",Potency
Cc1ccc(Cc2c(-c3ccc(Cl)cc3)nc3cc(C)c(Br)c(C)n23)cc1,,"inconclusive: 29.1 µM [inhibitor, partial curve]"
CCOC(=O)N1CCN(C(=O)c2ccccc2SCC(=O)NCC2CCCCC2)CC1,,"inconclusive: 18.4 µM [inhibitor, single point]"
CC(C)Oc1ccc(CNC(=O)Cn2c(-c3cccs3)cc3ccccc32)cc1,inactive: 0.215%,
O=C(CCc1ccccc1)Nc1ccccc1F,inactive: 3.21%,
COc1ccc(C(CNC(=O)Cc2ccc(-c3ccccc3)cc2)N(C)C)cc1 (stereo not given),,active: 20.6 µM
Cc1c(/C=N/NC(=O)c2ccccc2O)c2ccccn2c1C(=O)c1ccc(F)cc1,,"inconclusive: 23.1 µM [inhibitor, partial curve, poor fit]"
Cc1ccc(F)cc1-c1nc(NC(C)C)nc2cc(-c3ccccc3)sc12,,"inconclusive: 23.1 µM [inhibitor, single point]"
CCOc1ccc(NC(=O)CN2CCN(C3c4ccccc4-c4ccccc43)CC2)cc1,,"inconclusive: 29.1 µM [inhibitor, single point]"
Cc1cc(Br)ccc1NC(=O)CCSc1ccccc1,inactive: -8.56%,
COc1cccc(NC(=O)COC(=O)c2c(NC(C)=O)sc(C)c2C)c1,inactive: -23.7%,
CC(=O)NN1C(=O)/C(=C\c2ccc(C)cc2)SC1=S,,"inconclusive: 18.4 µM [inhibitor, single point]"
CC1CCN(c2c(NCc3ccc(C(=O)N(C)C4CCCCC4)cc3)c(=O)c2=O)CC1,,"inconclusive: 18.4 µM [inhibitor, single point]"
CC(=O)NC(c1ccccc1)c1nc(-c2cccc(F)c2)cs1 (stereo not given),,"inconclusive: 29.1 µM [inhibitor, single point]"
CCOc1ccc2nc(N(CCCN(C)C)C(=O)c3ccc(S(=O)(=O)N4CCCC4)cc3)sc2c1,,"inconclusive: 29.1 µM [inhibitor, single point]"
O=C(Nc1ccccc1)Nc1ccc(F)cc1F,,"inconclusive: 29.1 µM [inhibitor, single point]"
COc1ccccc1/C=N/NC(=O)CCSc1ccccc1,inactive: 0.207%,
Cc1nc2ccccn2c1C(=O)N/N=C/c1ccc(CNC(=O)C(=O)Nc2ccccc2)o1,,"inconclusive: 25.9 µM [inhibitor, single point]"
CCOC(=O)c1nnn(CC(=O)N2N=C(c3cc(C)ccc3C)CC2c2ccc(OC)cc2)c1C(=O)OCC (stereo not given),,active: 29.1 µM
COc1cccc(C(=O)Nc2ccc(S(=O)(=O)N(Cc3ccccc3)c3ccccc3)cc2)c1,,"inconclusive: 29.1 µM [inhibitor, single point]"
CSc1c(-c2ccccn2)c(N)nn1C(=O)C1CCC1,,"inconclusive: 23.1 µM [inhibitor, partial curve]"
COc1ccc(S(=O)(=O)NC(C)C(=O)N2CCCC2)cc1C (stereo not given),inactive: 39%,
COC(=O)[C@@H](NS(=O)(=O)c1cc(Br)ccc1Br)C(C)C,inconclusive: -30.2% [inhibitor],
